Each structure is given as a SMILES string. Hit rate of the full screen: of about 150,000 compounds, about 540 (0.36%) showed an effect of 50% or more. This is one part of the list.

A word on the % Inhibition: it is the drop in the measured response relative to a control, in per cent.

The experiment relates to Plasmodium falciparum. Nature of the experiment: Primary screen in NF54 nanoGlo assay, in single point, at 2uM, 72h; a lower Z score goes with more inhibition. Particulars: timepoint 72 hour. The experiment is classed as functional, Erythrocyte.
In the case of `Cc1ccc(-c2nc(COc3nnc4ccccn34)cs2)o1`, the “% Inhibition” value is -9% and the Z score amounted to 0.8.
For `O=C(Nc1cccc(Br)c1)C(F)(F)F`, in that order: -13% and 2.39.
Taken in the same sequence, the figures for `COCCN(Cc1c(-c2ccccc2)noc1N1CCN(C)CC1)C(=O)c1ccc(C)cc1` were 30% and -1.01.
Consider `CCN(CC)C(=O)[C@@H](C)[C@@H]1CC[C@@]2(C)CC[C@H](NC(=O)c3cncnc3)[C@@H](C)[C@@H]2[C@H]1O`, for which the “% Inhibition” value is listed as -16% and the Z score is listed as 2.84.
For `COCCCn1c(C)c(C)c(S(=O)(=O)c2ccccc2)c1NC(=O)c1cccc(C)c1`, in that order: -3% and 0.44.
For `CC(NC(=O)c1c(O)cccc1F)C1CCOC1` (stereo not given), the “% Inhibition” value is listed as -15% and the Z score was 1.32.
`Cc1cc(C)n2c(C(=O)NCCNS(=O)(=O)c3ccc(Cl)cc3)nnc2n1`: the “% Inhibition” value is -9% and the Z score amounted to 1.16.
Taken in the same sequence, the figures for `O=C1NCCN(Cc2cccs2)[C@H]1CC(=O)N(CCc1ccccc1)Cc1ccccc1` were 12% and -1.61.
Consider `CN(C)C(=O)c1cnc(N2C[C@@H]3[C@@H](CF)[C@@H]3C2)c(Cl)c1`, for which the “% Inhibition” value is reported as -11% and the Z score was determined as 1.91.
Turning to `COc1ccccc1N1CCN(C(=O)c2cn3c(n2)CC[C@H](c2ccccc2)C3)CC1`, the “% Inhibition” value is listed as -16% and the Z score is 1.57.
For `Cc1nc(C(C)NS(=O)(=O)CC2CCOC2)cs1` (stereo not given), in that order: -1% and 0.23.
Taken in the same sequence, the figures for `Cc1ccc2c(c1)C(NC(=O)N(C)CCCn1ccnc1)C(C)C2` (stereo not given) were -14% and 1.48.
In the case of `CCN(CC)C(=O)[C@H](C1CCCC1)N1CCN(C(=O)C2CCCC2)CC1`, the “% Inhibition” value was -14% and the Z score amounted to 1.74.
In the case of `CN(CCN(C)S(=O)(=O)Cc1cc(F)ccc1Cl)C1CCCC1`, the “% Inhibition” value was determined as 15% and the Z score is on record as -1.94.
Consider `CC(C)(C)c1ncsc1C(=O)NCc1nc(C2CC2)cs1`, for which the “% Inhibition” value was -5% and the Z score stood at 0.61.
In the case of `Cc1ccc(-c2ccc(N3CCN(S(=O)(=O)c4cccnc4)CC3)nn2)c(C)c1`, the “% Inhibition” value came out at 5% and the Z score is listed as -0.87.
For `O=C(C1CCOCC1)N1CCC[C@H](C(F)(F)F)C1`, in that order: -5% and 1.09.
`CC(C)(CO)NC(=O)c1ccc(OC2CCOCC2)nc1`: the “% Inhibition” value amounted to 0% and the Z score was 0.09.
Taken in the same sequence, the figures for `COCC1(C(=O)NCCc2ccccc2Oc2ccccc2)CCC1` were -3% and 0.26.
On to `CN1CN(C(=O)C(C)(C)C(F)F)CC1=O`, for which the “% Inhibition” value is recorded as -2% and the Z score turned out to be 0.4.
In the case of `Clc1ccc(OC[C@H]2CCCO2)nc1`, the “% Inhibition” value is listed as -9% and the Z score came out at 1.24.
Taken in the same sequence, the figures for `CC[C@H](C)c1ccc(NC(=O)CN2CCC3(CC2)C(=O)NCCCN3C)cc1` were 5% and -0.61.
On to `Cc1cnc(C2CCC2)n1CCNC(=O)c1cnn(C)c1`, for which the “% Inhibition” value was 11% and the Z score is listed as -1.35.
Take `COc1ccc(F)cc1-c1c(C)nc2[nH]nc(N)c2c1C`: the “% Inhibition” value is listed as 5% and the Z score is reported as -0.88.
For `Cc1ccc(S(=O)(=O)CC(=O)Nc2nnc(C[C@H](C)c3ccccc3)s2)cc1`, in that order: -5% and 0.67.
Taken in the same sequence, the figures for `O=C(c1cnn2c(C(F)(F)F)cc(-c3cccs3)nc12)N1CCOCC1` were -3% and 0.59.
For `CCc1ccc(-n2ncc(-c3cc(C(=O)Nc4cccc(C)c4C)c4ccccc4n3)c2C)cc1`, in that order: 6% and -0.91.
For the compound `CC(C)N1CCC(CC(=O)N2CCc3ncccc3C2)CC1`, the “% Inhibition” value is reported as -16% and the Z score amounted to 2.99.
Regarding `CC(C)(C)c1ccc(Cn2c(C(=O)Nc3ccc(C(F)(F)F)cc3)cc3cc(NC(=O)c4ccco4)ccc32)cc1`, the “% Inhibition” value was 3% and the Z score is on record as -0.45.
Taken in the same sequence, the figures for `CCN(C)Cc1cccc(CNCc2cccc3c2OCO3)c1` were -8% and 1.42.
In the case of `CC(NCC1(O)CCN(C)C1)c1ccc(Cl)cc1` (stereo not given), the “% Inhibition” value is -7% and the Z score is on record as 1.09.
For `CNC(=O)Cn1cc(NC2CCCC(c3ncccc3C)C2)cn1` (stereo not given), in that order: 5% and -0.73.
Regarding `Oc1ccc2ccccc2c1-c1nc2ncccn2c1Nc1ccccc1`, the “% Inhibition” value was -3% and the Z score is recorded as 0.48.
With `CC(C)(C)OC(=O)N1CCC(C)(c2nc([C@H]3CCOC3)no2)CC1`, the “% Inhibition” value was found to be 0% and the Z score is -0.03.
For `COC(C)CN1CCOCC1C(N)=O` (stereo not given), in that order: 6% and -0.73.
Regarding `O=C(c1cccc2cc[nH]c12)N1CCC(N2CCC[C@H](O)C2)CC1`, the “% Inhibition” value turned out to be 7% and the Z score is -1.09.
For `COCc1c(C(=O)NCC2CC3C=CC2C32CC2)c(=O)cc(C)n1CCc1cccc(Cl)c1` (stereo not given), in that order: -10% and 1.75.
Taken in the same sequence, the figures for `CC1(C)O[C@H]2[C@@H](O1)[C@@H](C(=O)Nc1nccs1)O[C@@H]1OC(C)(C)O[C@@H]12` were -11% and 1.27.
Take `CC(C)N(CCOCCO)C(=O)Nc1cc(Cl)ccc1F`: the “% Inhibition” value is reported as -7% and the Z score is listed as 1.4.
For `COC1(c2noc(CCn3cccn3)n2)CCC1`, in that order: -3% and 0.48.
Consider `Cc1ccccc1-c1noc(CN2C[C@@H]3CC[C@H](CC2=O)N3)n1`, for which the “% Inhibition” value is recorded as -8% and the Z score was found to be 0.93.
For `COCCN1C(=O)c2ccccc2N[C@@H]1c1ccc(OCc2ccncc2)c(OC)c1`, in that order: -8% and 0.73.
For `O=C(CNC(=O)N1CCCC1)Nc1cc(-c2cccs2)on1`, in that order: 1% and -0.2.
Taken in the same sequence, the figures for `Cn1cc(C(=O)NC2CCN(Cc3nnsc3Cl)CC2)cn1` were -6% and 1.11.
On to `Cc1n[nH]c([C@H]2CCN(Cc3ccc[nH]3)C[C@H]2NC(=O)C2CCOCC2)n1`, for which the “% Inhibition” value was -15% and the Z score is recorded as 1.95.
Taken in the same sequence, the figures for `CC(CCn1cccn1)NC1CCc2c(O)cccc21` (stereo not given) were 1% and -0.1.
Taken in the same sequence, the figures for `O=C([C@@H]1Cc2ccccc2S(=O)(=O)N1)N1CCc2c(Cl)cccc2C1` were 2% and -0.26.
On to `CC(C)(C)c1nnc(NCCc2cccc(C(N)=O)c2)s1`, for which the “% Inhibition” value is -16% and the Z score amounted to 2.22.
Take `CCOC(=O)c1c(C)[nH]c(C(=O)N2CCC[C@H](C(=O)NCc3ccccc3Cl)C2)c1C`: the “% Inhibition” value is recorded as 0% and the Z score came to 0.04.
For `CC(C)(C)OC(=O)N/N=C(\Cc1ccc(Cl)cc1)NCc1ccco1`, in that order: -13% and 1.43.
Taken in the same sequence, the figures for `CCc1nnc(NC(=O)NCc2c[nH]nn2)s1` were 31% and -4.24.
For `CC(C)Cc1nc(C(=O)NC(C)(C)CN2CCOCC2)cs1`, in that order: -2% and 0.26.
For the compound `CCC[C@H]1COCCN1Cc1ncc[nH]1`, the “% Inhibition” value is on record as -11% and the Z score is given as 2.1.
For `CN(C)c1ccc([C@H]2CC3(C)NC(=O)C2C(=O)N3)cc1`, the “% Inhibition” value was -8% and the Z score was 1.07.
For `O=C(Cc1cccs1)N1CCC[C@H](n2ccc(C(F)(F)F)n2)C1`, in that order: 6% and -1.09.
`CN1C2CCC1CN(C(=O)NC(c1ccccc1)C1CCCO1)CC2` (stereo not given): the “% Inhibition” value is listed as -2% and the Z score is recorded as 0.18.
`O=C(O)C1(n2cnc3ccccc32)CCN(c2nnnn2-c2ccccc2)CC1`: the “% Inhibition” value was 7% and the Z score is -0.79.
Turning to `COC[C@@H]1C[C@H](OC)CN1C(=O)C1CCC(O)CC1` (stereo not given in full), the “% Inhibition” value is given as -14% and the Z score is recorded as 1.69.
Taken in the same sequence, the figures for `CN(C)c1ncccc1N(C)C(=O)c1cscn1` were -11% and 1.54.
For `Cc1cccc2c3c([nH]c12)CCN(C(=O)CCn1nnnc1C)C3`, in that order: -1% and 0.16.
Taken in the same sequence, the figures for `Cc1ccc(NS(=O)(=O)c2cc(C(=O)NCCCn3ccnc3)ccc2Cl)c(C)c1` were -34% and 4.04.
For the compound `Cc1ccncc1C(=O)Nc1ccccc1OC[C@H]1CCCO1`, the “% Inhibition” value is on record as -3% and the Z score came to 0.55.
For `Cc1nc([C@@H](c2cccc(F)c2)N(C)C)n(CCO)n1`, in that order: -6% and 0.95.
`O=C(CCN1CCC[C@H]1c1ccccc1)NCc1cccs1`: the “% Inhibition” value is recorded as -11% and the Z score is given as 1.83.
Taken in the same sequence, the figures for `COC(=O)c1nc(CCNc2nc(C)nc(C)c2C)sc1C` were 5% and -1.02.
For `CCOc1cccc(Cn2cc(C(N)=O)nc2C2CC2)n1`, in that order: -8% and 0.72.
For `O=C(COc1cccc(Cl)c1)OCC(=O)N(C1CCCCC1)[C@H]1CCS(=O)(=O)C1`, in that order: -4% and 0.66.
With `Cc1ccc(C)c(OCC(=O)N2CCN(C(=O)[C@@H]3CCCO3)CC2)c1`, the “% Inhibition” value is listed as -40% and the Z score stood at 4.73.
With `C[C@@H](c1nccs1)N(C)C(=O)c1ccc(NCc2nc3ccccc3n2C)cc1`, the “% Inhibition” value is -1% and the Z score was found to be 0.18.
For the compound `O=C(Cc1cccs1)N1CCN(C(=O)c2cnn3ccccc23)CC1`, the “% Inhibition” value is recorded as -12% and the Z score is recorded as 1.91.
For `Cc1nc(N(C)C)sc1C(=O)N1CCNCC1`, in that order: -4% and 0.45.
For `O=C(N[C@H]1CCOC[C@@H]1OCc1ccccn1)c1cnc2cccnn12`, in that order: -9% and 1.49.
For `Cc1cc(C)cc(OC[C@@H](O)CNC(C)(C)CC(C)(C)C)c1`, in that order: -3% and 0.43.
For the compound `Cc1csc(N2CCC(Nc3cnn(C)c3)CC2)n1`, the “% Inhibition” value is given as -7% and the Z score came out at 0.74.
`CO[C@H]1CN[C@@H](C(=O)N(C)Cc2cc(C)ccc2C)C1`: the “% Inhibition” value is 2% and the Z score is listed as -0.36.
On to `Cc1ccc(Cl)cc1N1CCN(C(=O)c2cc(C3CC3)n[nH]2)CC1`, for which the “% Inhibition” value is -20% and the Z score stood at 2.44.
Taken in the same sequence, the figures for `Cc1ccc2c(CC(=O)NCC(C)(C)c3ccccn3)c[nH]c2c1` were -3% and 0.44.
For `Cc1ccc(C)c(OCCON=C(N)Cc2csc(C)n2)c1`, in that order: -2% and 0.24.
For `O=S(=O)(Cc1ccon1)N1CCN(CC#Cc2ccccc2)CC1`, in that order: 3% and -0.43.
Take `CCC(=O)N1CCc2sc(C(=O)N3CCN(c4ccccc4)CC3)cc2C1`: the “% Inhibition” value is on record as -10% and the Z score amounted to 1.58.
Regarding `CN1CCN(C(=O)c2cc(Cc3ccccc3)n[nH]2)c2ccccc2C1`, the “% Inhibition” value was -8% and the Z score is 1.09.
Taken in the same sequence, the figures for `Cc1ccc2nc(C[C@H]3CN(C(=O)Cc4ccccc4)CC[C@H]3CC(=O)O)[nH]c2c1` were -1% and 0.16.
For `Nc1nnnn1CC(=O)N1CCN(Cc2ccc3c(c2)OCO3)CC1`, in that order: -7% and 1.26.
For `Cc1nn(C(C)C)cc1C(=O)N(CCO)CC1CCCCC1`, in that order: -9% and 1.13.
For `CC(C)c1nc(CN(C)[C@H]2CCOC3(CCOCC3)C2)cs1`, the “% Inhibition” value is reported as -2% and the Z score is on record as 0.27.

Values taken from ChEMBL document CHEMBL4888484, “Replenishing the malaria drug discovery pipeline: Screening and hit evaluation of the MMV Hit Generation Library 1 (HGL1) against asexual blood stage Plasmodium falciparum ,using a nano luciferase reporter read-out” (2022).
